The campaign covered roughly 330,000 compounds. About 300 (0.091%) were called active. The inconclusive results got no clear call from the source; some entries with a clear call stand among them for comparison. The call rests on the fitted dose curve; in most records, active means well fitted inhibition curve with a large enough effect; inconclusive means small, poorly fitted or top-dose-only effect, or effect the other way, or another doubt; inactive means no such curve, though single readings can be large or run the other way. Potencies of inconclusive entries are left out as doubtful fits.
Target: Lysosomal acid glucosylceramidase (Homo sapiens) (UniProt P04062)
Test: qHTS Assay for Inhibitors and Activators of N370S glucocerebrosidase as a Potential Chaperone Treatment of Gaucher Disease;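 on activity change, negative = inhibition: 0% = full enzyme activity and -100% = no enzyme basal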
Conditions: N370S GC spleen homogenate, 4MU-glucoside fluorescence; activity change, negative = inhibition: at 59.4 µM (top of the series) unless noted
Potency means the concentration at half of the fitted maximal effect.

Structure (SMILES)	Potency	activity change, negative = inhibition
N#Cc1nc(-c2ccccc2F)oc1N1CCCC1	inconclusive [activator, partial curve]	
OCCNNC(=S)NC1CC2C=CC1C2 (configuration not stated)	inconclusive [inhibitor, partial curve]	
CC1(COS(N)(=O)=O)CCCCC1		inactive: -20.4%
CCOc1ccc(CN2CCN(c3cc(C)nc4c5c(C)cc(C)nc5nn34)CC2)cc1	inconclusive [activator, partial curve]	
Cc1ccc(C)c(OC(=O)c2cccc(S(=O)(=O)N3CCN(C)CC3)c2)c1	inconclusive [inhibitor, single point]	
O=[N+]([O-])c1ccc2c(c1)S(=O)(=O)C=C2		inactive: -0.708%
COc1cc(C(CCN2CCCC(C)C2)c2c(OC)cc(OC)c3c2OC(=O)CC3c2ccc(N(C)C)cc2)cc(OC)c1OC (configuration not stated)	inconclusive [inhibitor, partial curve]	
COc1ccc(N(C(=O)c2snc(C(N)=O)c2N)C(C(=O)NC2CCCCC2)c2ccc(C)o2)cc1 (configuration not stated)	inconclusive [activator, single point]	
O=c1c2cc(-c3ccccc3)sc2ncn1-n1cccc1		inactive: 4.03%
O=C(Nc1ccc(Cl)cc1)N(CCCN1CCOCC1)Cc1cccs1	inconclusive [inhibitor, partial curve]	
Cc1ccc(NC(=O)Cc2sc(C)nc2-c2ccc(C)cc2)cc1	inconclusive [activator, single point]	
CN1c2ccc(C=O)c3c(C=O)ccc(c23)N(C)C1(C)C	inconclusive [activator, single point]	
CCN1CCN(CCCOc2ccc(-c3ccccc3)cc2)CC1	inconclusive [inhibitor, single point]	
COCCCNC(=O)/C(C#N)=C/c1c(N2CCN(c3cccc(Cl)c3)CC2)nc2c(C)cccn2c1=O	inconclusive [activator, partial curve]	
Cn1c(C(=O)N2COCC2(C)C)cc2c(=O)n3ccccc3nc21	inconclusive [activator, partial curve]	
OCCCNc1nc(-c2ccc(Cl)cc2)nnc1-c1ccc(Br)cc1	inconclusive [activator, partial curve]	
CC1=C(C)C(=O)N(c2ccccn2)C1=O	inconclusive [inhibitor, partial curve]	
Cc1nnc(NC(=O)c2cccc(Br)c2)s1	inconclusive [inhibitor, partial curve]	
CCc1ccc(-c2cc(C(=O)NN3CCOCC3)c3ccccc3n2)s1	inconclusive [activator, partial curve]	
COc1ccc(C(NC(=O)CN2C(=O)NC3(CCc4ccccc43)C2=O)c2ccc(OC)cc2)cc1 (configuration not stated)	inconclusive [inhibitor, partial curve]	
CC(C)OCCCn1c(=NC(=O)c2cccs2)c(C#N)cc2c(=O)n3ccccc3nc21	inconclusive [activator, partial curve]	

Structure (SMILES)	Potency	activity change, negative = inhibition
CN(C)CCN1CC(O)=C(c2nc3ccccc3s2)C1=N	inconclusive [activator, partial curve]	
CCOc1ccc(NC(=S)N(CCN2CCOCC2)Cc2ccc3c(c2)CCCN3CC)cc1	inconclusive [inhibitor, partial curve]	
CCCSc1nnc(CNC(=O)C23CC4CC(CC(C4)C2)C3)n1Cc1ccccc1	inconclusive [activator, partial curve]	
O=C(C1CC(c2ccccc2O)=NO1)N1CCc2ccccc2C1 (configuration not stated)		inactive: 6.71%
Cc1nc2ccccc2nc(=O)c1NNc1ccccc1		inactive: -18.2%
O=C1NCN(c2ccccc2)C12CCN(CCCC(c1ccc(F)cc1)c1ccc(F)cc1)CC2	inconclusive [inhibitor, single point]	
Oc1ccc(-c2csc(-c3c[nH]c4ccccc34)n2)c(O)c1	inconclusive [inhibitor, single point]	
Cn1c(SCC(=O)N2CCCC2)nc2ccccc21		inactive: 19.7%
CCOC(=O)c1nn(-c2cccc(OC)c2)c2nc(Nc3ccccc3)cc(=O)n12	inconclusive [activator, single point]	
CCCCOc1ccc(C(=O)N/N=C/c2cn[nH]c2-c2ccc(OC)c(OC)c2)cc1	inconclusive [activator, partial curve, poor fit]	
CCCCCc1cc(=O)oc2c(C(CCN3CCCC3)c3cc(OC)c(OC)c(OC)c3)c(OC)cc(OC)c12 (configuration not stated)	inconclusive [inhibitor, partial curve]	
COc1ccc2ncc(S(=O)(=O)c3ccccc3)c(N3CCN(c4ccccc4)CC3)c2c1	inconclusive [activator, partial curve]	
CN(C)CCCN(C(=O)c1ccc(C(=O)c2ccccc2)cc1)c1nc2cc3c(cc2s1)OCCO3	inconclusive [inhibitor, single point]	
Cc1cc(C)c(OCCCNCc2ccccc2)c(Br)c1	inconclusive [inhibitor, partial curve]	
O=C(O)C(=O)/C(=C\c1ccsc1)c1ccc2ccccc2n1	inconclusive [activator, single point]	
COc1cccc(-c2nc(C(=O)NCC3CCCO3)cc3c2[nH]c2ccccc23)c1 (configuration not stated)	inconclusive [activator, partial curve]	
Cc1cc(Cl)ccc1OCC(=O)Nc1ccccc1N1CCOCC1	inconclusive [activator, partial curve]	
C/C=C\C1=C(CO)C(=O)C2O[C@]2(CC=C(C)C)C1=O (some centres not stated)		inactive: -7.78% [at 12.8 µM]
Nc1ccc(-c2ncc(-c3ccccc3)o2)cc1	inconclusive [activator, partial curve]	
C=CCc1c(C)nc(-c2ccccc2)nc1Nc1ccc(O)cc1	active: 14.1 µM	
Cc1ccc(C(=O)NC(=S)N2CC(C)OC(C)C2)cc1[N+](=O)[O-] (configuration not stated)	inconclusive [inhibitor, partial curve]	

— PubChem BioAssay AID2101 (National Center for Advancing Translational Sciences (NCATS), 2009)
